IFI data for 90 compounds are collected here from ChEMBL document CHEMBL1157539, “Thousands of chemical starting points for antimalarial lead identification” (Nature, 2010).

The structures appear in SMILES notation. Whole data set: some 13,000 compounds, median “IFI” near 4, cut for the highest 2% near 17. Some of the results follow. Residues, ends and D or L forms follow the SMILES beside them. *: point of attachment. Boc = CC(C)(C)OC(=O)*

The experiment can be described thus: GSK_TCMDC: Inhibition Frequency Index (IFI). The number of non-kinase HTS assays where a compound showed > 50 % inhibition, expressed as a percentage of the number of such assays in which the compound was tested (-0 is zero). Type of experiment: functional.
In turn, `CC(C)CCN1CCCN(Cc2cccc(C(=O)Nc3ccc(C(C)(C)C)cc3)c2)CC1` displayed an IFI of 7.5%.

`NC(=O)c1ccc(C(=O)Nc2cccc(-c3ccc(-c4nc5cc(C(F)(F)F)ccc5[nH]4)cc3)c2)cc1` displayed an IFI of 2.59%.

With `Cc1cc(=NN=Cc2ccccc2Cl)c2cc(C(F)(F)F)ccc2[nH]1`, the IFI stood at 1.54%.

Compound `CC(C)n1ncc2c(C(=O)N3CCCc4ccccc43)cc(-c3ccccc3)nc21` came in with an IFI of 2.97%.

`CN1CCN(c2ccnc3ccc(NC(=O)c4ccc(Cl)c(Cl)c4)cc23)CC1`: the IFI was -0%.

For the compound `N#Cc1ccc(-c2ccc(C(=O)NCCCCN3CC=C(c4ccc5c(c4OCC4CC4)CCCC5)CC3)cc2)cc1`, the IFI was determined as 11.4%.

In turn, `Cc1noc(C)c1-c1cccc(CNCc2cccc(-c3csc(-c4nc5ccccc5[nH]4)c3)c2)c1` displayed an IFI of 7.69%.

`COC(=O)CC[C@H](NC(=O)[C@H](C)NC(=O)OC(C)(C)C)C(=O)OC` (Boc-Ala-Glu(OMe)-OMe): the IFI was -0%.

In turn, `COc1cc(NC(=O)/C=C/c2ccc(-c3ccccc3)cc2)ccc1OCCN(C(C)C)C(C)C` yielded an IFI of 7.3%.

Compound `CN1CCCN(c2ccnc3cc4c(cc23)N(C(=O)c2ccc(Cl)c(Cl)c2)CC4)CC1` returned an IFI of 3.62%.

`Cc1ccc(C(=O)N2CCc3cc4nccc(N5CCN6CCC[C@H]6C5)c4cc32)cc1` had an IFI of 3.65%.

`CC1(C)NC(N)=NC(=N)N1OCCCc1ccc(Cl)cc1Cl` yielded an IFI of 5.76%.

With `NOCCCOc1ccccc1`, the IFI was determined as 1.46%.

On to `CCC[C@@H]([C@@H](CC(C)C)C(=O)N[C@@H](CCC/N=C(/N)NS(C)(=O)=O)C(=O)Nc1nccs1)N(O)C=O`, for which the IFI came out at 2.24%.

Consider `Oc1ccc(CCCNc2nc(NCc3ccccc3-c3ccccc3)nc(NC3CCNCC3)n2)cc1`, for which the IFI came out at 15.2%.

As for `O=[N+]([O-])c1ccc(C(O)P(=O)(c2ccccc2)c2ccccc2)cc1` (stereo not given), the IFI is 0.76%.

In turn, `COc1ccc(-c2ccc(NC(=O)c3cccc(Cl)c3)cc2)cc1CN(C)CCO` came in with an IFI of 5%.

`COc1ccc(OC)c(C=NNc2nc3ccccc3[nH]2)c1` showed an IFI of 0.74%.

For the compound `Fc1ccccc1COc1ccc(Nc2ncnc3ccc(I)cc23)cc1Cl`, the IFI turned out to be 2.22%.

Consider `O=C(Nc1ccc(CCNC2=NCCN2)cc1)Nc1ccc(CCNC2=NCCN2)cc1`, for which the IFI was -0%.

Turning to `COc1ccc(NC(=O)[C@H](CC(C)C)Nc2cc(C)nc(NCc3ccccc3C)n2)cc1`, the IFI worked out at 4.88%.

`OC1CCCN(Cc2ccc(-c3ccc(-c4nc5cc(F)ccc5[nH]4)cc3)cc2)C1` (stereo not given): the IFI was 5.63%.

Consider `CCCn1cc2c(ccc3nc(N)nc(N)c32)n1`, for which the IFI turned out to be 2.24%.

`NC(=O)c1ccc(NCC(=O)Nc2cccc(-c3cccc(-c4nc5cc(F)ccc5[nH]4)c3)c2)cc1` gave an IFI of 9.52%.

`O=C(Nc1cccc(N2CCC(NCCCn3ccnc3)CC2)c1)c1cccc(C(F)(F)F)c1` came in with an IFI of 0%.

Turning to `COc1cc(-c2cnc(N)c(-c3nc4ccccc4[nH]3)c2)cc(OC)c1OC`, the IFI worked out at 11.4%.

`C=C[C@]1(C)C[C@@H](OC(=O)NC(=O)C2CCN(C(=O)CSc3ccccc3)CC2)[C@]2(C)[C@H](C)CC[C@]3(CCC(=O)[C@H]32)[C@@H](C)[C@@H]1O` yielded an IFI of 2.26%.

As to `CCCc1nc2c(N3CCCN(C(=O)NC4CCCCC4)CC3)cccc2n1Cc1ccccn1`, the IFI came to 7.14%.

The compound `O=C(O)c1cc(C(F)(F)F)co1` yielded an IFI of 0.74%.

As for `Cc1nc(-c2cccc(NCc3ccccc3)c2)[nH]c1C`, the IFI came out at 4%.

`Cc1ncc([N+](=O)[O-])n1CCOC(=O)NC(Nc1ccc(Br)cc1)C(Cl)(Cl)Cl` (stereo not given): the IFI was 2.4%.

Compound `Cn1cc(CCNc2ccnc(NCCc3coc4ccccc34)n2)c2ccccc21` showed an IFI of 16.7%.

In turn, `FC(F)(F)c1ccc2nccc(NCc3ccccc3)c2c1` returned an IFI of 1.47%.

`Cc1[nH]c(C)c(-c2ccc(OCCSc3ccncc3)cc2)c(=O)c1Br` registered an IFI of 3.7%.

`O=C(COc1cccc([N+](=O)[O-])c1)Nc1ccc(-c2nc3ccccc3[nH]2)cc1` registered an IFI of -0%.

`NC(=O)c1cnc2cc(-c3ccoc3)ccc2c1Nc1ccc(NC(=O)Nc2ccccc2Cl)cc1`: the IFI was determined as 4.79%.

In the case of `COc1cccc(-c2ccc(C(=O)NC3CCN(Cc4ccc(C(C)(C)C)cc4)CC3)s2)c1`, the IFI was 12.3%.

`CC(C)c1cc(C(=O)N[C@@H](Cc2ccccc2)[C@H](O)CNC2CCCCC2)cc(N2CCCC2=O)c1` returned an IFI of 2.21%.

On to `CCN(CCCN1CCCCC1)c1cc(C)nc(Nc2ccc(C)c(Br)c2)n1`, for which the IFI was 8.86%.

As to `NC(=O)c1cccc(C(=O)Nc2cccc(-c3csc(-c4nc5ccccc5[nH]4)c3)c2)c1`, the IFI was found to be 1.87%.

In the case of `Oc1nc(Cc2ccccc2)nc2ccc(Cl)cc12`, the IFI came out at 0%.

`Fc1ccc(CNc2nc(-c3ccc(F)c(C(F)(F)F)c3)n(-c3cccc(C(F)(F)F)c3)n2)cc1` gave an IFI of 2.44%.

Consider `CC(C)N1CCC(N(Cc2ccc(-c3ccc(C(F)(F)F)cc3)cc2)C(=O)Cn2c(SCc3cccc(F)c3F)cc(=O)c3ccccc32)CC1`, for which the IFI came out at 6.52%.

`CC12CCC(=O)N1C(C(=O)Nc1cccc(C(=O)Nc3cccc(C(F)(F)F)c3)c1)CS2` (stereo not given): the IFI came out at 0%.

For the compound `Cc1cc(N[C@@H](Cc2ccccc2)C(=O)NCCOc2ccccc2)nc(NCCc2ccccc2)n1`, the IFI came to 16.3%.

Compound `CC(C)c1ccc(CN2CCC(CNC(=O)c3cc(-c4ccc(N(C)C)cc4)cs3)C2)cc1` (stereo not given) came in with an IFI of 10%.

The compound `O=C1NC(=O)C(c2ccc(Cl)cc2)=C1Nc1cccc(S(=O)(=O)C(F)(F)F)c1` registered an IFI of 0.72%.

In turn, `Cc1cc(N2CCC(NS(=O)(=O)c3ccc(F)cc3)CC2)nc(Nc2cccc(C#N)c2)n1` came in with an IFI of 3.85%.

`COc1c(CN2CCOCC2)cccc1-c1cc2c(-c3ccc(C(=O)O)c(C(C)C)c3)ccnc2[nH]1`: the IFI is -0%.

`OCCn1c(CNCCCNc2nc3ccccc3[nH]2)cc2c(Cl)cc(Cl)cc21` showed an IFI of 6.38%.

`O=C(Oc1ccc(C2CNCCc3c2cc(OC(=O)c2ccc(O)cc2)c(OC(=O)c2ccc(O)cc2)c3Cl)cc1)c1ccc(O)cc1` (stereo not given) registered an IFI of 5.07%.

Consider `CC(Cc1ccc(OCc2ccccc2)cc1)Nc1nc(O)c2ccccc2n1` (stereo not given), for which the IFI was 4.14%.

In the case of `COc1ccc(OCC(O)CN(Cc2ccccc2OC)C(=O)Nc2ccc(Br)cc2)cc1` (stereo not given), the IFI turned out to be 3.55%.

`O=C(/C=C/c1ccccc1F)NC1CCC(CCN2CCc3ccc(-c4cccnc4)cc3CC2)CC1` (stereo not given) gave an IFI of 5.76%.

Compound `Cc1nn(CC(C)C)c2sc(C(=O)Nc3nc(-c4ccccn4)cs3)cc12` yielded an IFI of 10%.

With `COc1ccc(C)c(Nc2ccnc(Nc3ccc(-c4cnc[nH]4)cc3)n2)c1`, the IFI was determined as 12.9%.

On to `OCc1ccc(-c2cncc(Nc3ccc(F)c(Cl)c3)c2)cc1`, for which the IFI was determined as 6.02%.

`CNC(=O)Cc1ccc(C(=O)Nc2cccc(-c3cccc(-c4nc5cccc(C)c5[nH]4)c3)c2)cc1` displayed an IFI of 2.73%.

Compound `CC(=O)Nc1ccc(OCCCCN(Cc2ccccc2C(F)(F)F)c2ccc(C(F)(F)F)c(C#N)c2)c(Cl)c1` showed an IFI of 1.52%.

The compound `Cc1cc(=NN=Cc2ccccc2Cl)c2ccccc2[nH]1` displayed an IFI of 0.72%.

With `CC(C)N1CCC(N(Cc2ccc(-c3ccc(C(F)(F)F)cc3)cc2)C(=O)CCCn2c(CCc3cccc(F)c3F)nc(=O)c3ccccc32)CC1`, the IFI worked out at 7.91%.

`Cc1ccc(CN2CCN(Cc3cccc(NC(=O)c4ccc5ccccc5c4)c3)CC2)cc1C` gave an IFI of 5.59%.

`Nc1nc2c(ncn2COC2COP(=O)(O)OC2)c(=O)[nH]1` (stereo not given) yielded an IFI of 1.52%.

Compound `O=C(NCC1CCC(CNCCCc2ccccc2)CC1)c1cc(Cl)cc(Cl)c1` (stereo not given) had an IFI of 4.93%.

As for `Cc1cc(N[C@@H](CC(C)C)C(=O)NCCOc2ccccc2)nc(NCCOc2ccccc2)n1`, the IFI is 6.98%.

In the case of `Brc1ccsc1-c1nc(NC2CCN(Cc3ccccc3)CC2)no1`, the IFI is -0%.

The compound `Cc1[nH]c2ccccc2c1C(=O)C(C)Sc1nnc(-c2ccccc2Br)[nH]1` (stereo not given) had an IFI of 3.08%.

The compound `O=C(/C=C/c1ccc(Cl)c(Cl)c1)NC1CCC(CN2CCC(c3cc4ccccc4[nH]3)CC2)CC1` (stereo not given) gave an IFI of 1.48%.

For the compound `CN(c1ccccc1)S(=O)(=O)c1cccc(NC(=O)c2ccc(-n3ccnc3)c([N+](=O)[O-])c2)c1`, the IFI was determined as 17.2%.

`COc1ccc(CCN(Cc2cccs2)C(=O)c2cc3sccc3n2C)cc1OC` returned an IFI of 2.33%.

`CC(C)c1ccc(NC(=O)NCC2CCCN(CCCCCNC(=O)/C=C/c3ccc(Cl)c(Cl)c3)C2)cc1` (stereo not given) yielded an IFI of 12.1%.

In turn, `COc1ccccc1Cn1ccnc1SCC(=O)Nc1cc(C(F)(F)F)ccc1Cl` registered an IFI of 7.14%.

`COc1ccc(CC(C)CON2C(N)=NC(N)=NC2(C)C)cc1` (stereo not given) registered an IFI of 4.58%.

Compound `Cc1cccc(NC(=O)c2ccc(C(=O)NC3CCN(CC4CCCCC4)CC3)cc2)c1` yielded an IFI of 1.8%.

Compound `CSc1ccc(C=CC(=O)NC(=O)c2ccccc2O)cc1` returned an IFI of 3.47%.

As to `CCC(CCON1C(N)=NC(N)=NC1(C)C)c1ccc(Cl)c(Cl)c1` (stereo not given), the IFI was determined as 5.22%.

Consider `CC(=O)N(Cc1nc(-c2cc(Cl)c(Cl)s2)cs1)c1c(C)cccc1C`, for which the IFI is 0.68%.

As for `CC(=O)Nc1ccc(OCCN(Cc2ccccc2C(F)(F)F)c2ccc(C#N)c(C(F)(F)F)c2)c(Cl)c1`, the IFI is 3.17%.

In turn, `CC(=O)Nc1ncc(C(=O)Nc2cccc(-c3ccc(-c4nc5cc(C(F)(F)F)ccc5[nH]4)cc3)c2)s1` gave an IFI of 3.64%.

`Cc1ccccc1Nc1nc(NCCCO)c2ccccc2n1` came in with an IFI of 2.11%.

Consider `COc1cc2nc(N3CCC(CNC(=O)c4ccc(-c5cccc(C#N)c5)cc4)CC3)nc(N)c2cc1OC`, for which the IFI was 6.31%.

Consider `O=C(C=Cc1cccs1)N(CCCn1ccnc1)c1nc2ccc(F)cc2s1`, for which the IFI was 2%.

Turning to `C=CCOc1ccc2ccccc2c1CNCCCCCCNCc1c(OCC=C)ccc2ccccc12`, the IFI was 19.6%.

Turning to `Cc1ccc(CN2CCCN(Cc3cccc(NC(=O)c4cc5ccccc5s4)c3)CC2)cc1`, the IFI turned out to be 10.2%.

With `COc1cc(Nc2ccnc3cc(-c4ccccn4)ccc23)cc(OC)c1OC`, the IFI was 4.23%.

The compound `CCOC(=O)c1cnc2cc(N3CCCC3)c(Cl)cc2c1OCC` came in with an IFI of 0.75%.

Take `COCCN(C)c1ccc(C(=O)Nc2ccccc2)cc1NS(=O)(=O)Cc1ccccc1`: the IFI turned out to be 1.96%.

The compound `CS(=O)(=O)Cc1ccc(Nc2nccc(-c3c(-c4cccc(NC(=O)c5c(F)cccc5F)c4)nn4ncccc34)n2)cc1` showed an IFI of 5.8%.

Compound `COc1cccc(CNC(=O)[C@H]2CNCCN2C(=O)CCCc2ccccc2)c1` had an IFI of 0%.

With `CC(CN(C)C)C(=O)Nc1ccc(-c2csc(-c3nc4ccccc4[nH]3)c2)cc1` (stereo not given), the IFI came out at 2.68%.
